PubChem BioAssay AID485297 (National Center for Advancing Translational Sciences (NCATS), 2010)
Hit rate of the full screen: of about 320,000 compounds, about 9,100 (2.8%) were called active. Inconclusive means that the source gave no clear call. Such entries were picked first, then a sample of the others. The call rests on the fitted dose curve; in most records, active means well fitted activation curve with a large enough effect; inconclusive means small, poorly fitted or top-dose-only effect; inactive means no such curve, though single readings can be large or run the other way. No potency is given beside an inconclusive call; the fits are too rough.

Experiment: qHTS Assay for Rab9 Promoter Activators; further: nearly all actives have a fitted effect of over 60% in size; on activation, negative = inhibition: % of control where 0% means no effect
Conditions: Huh7 Rab9 promoter-luciferase reporter, luminescence, 24 h; series mostly up to 9.22 µM; activation, negative = inhibition: at the top concentration
Outline: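 Huh7 cells stably carrying a Rab9 promoter-luciferase reporter, 1500 cells per well in OP-MEM I with 10% FBS, treated with compound 24 hours at 37C. Luciferase activity read by luminescence after 10 minutes with Amplite reagent.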
Potency means the concentration at half of the fitted maximal effect; tags describe the fitted curve by direction and shape.

Row | SMILES | Potency | activation, negative = inhibition
1 | Cc1ccc2oc(-c3ccccc3)c(C(=O)O)c(=O)c2c1 | inconclusive [activator, single point] | 
2 | C=CCNc1nc(-c2cc3ccccc3o2)cs1 | active: 0.631 µM | 
3 | O=C(CSc1nnc(NC(=O)c2ccccc2[N+](=O)[O-])s1)NCC1CCCO1 (stereo not drawn) |  | inactive: 3.91%
4 | O=C(Nc1nnc(S(=O)(=O)N2CCOCC2)s1)c1cccc(F)c1 | inconclusive [activator, partial curve] | 
5 | CC1CCCN(C(=O)COc2ccc3c(c2)OCO3)C1 (stereo not drawn) | inconclusive [activator, partial curve] | 
6 | O=C(CCCc1ccccc1)Nc1cccc([N+](=O)[O-])c1 | inconclusive [activator, partial curve] | 
7 | O=C(CCN1C(=O)C2CCCCC2C1=O)Nc1nc2c(F)cc(F)cc2s1 (stereo not drawn) | active: 1.41 µM | 
8 | CC(C)(C)c1ccc(C(=O)c2c[nH]c(C(=O)O)c2)cc1 | inconclusive [activator, full curve, poor fit] | 
9 | COc1cccc(C(=O)Nc2ccc(N(C)C)cc2)c1OC | active: 1.41 µM | 
10 | CC(C)C(=O)Nc1cccc(NC(=S)NC(=O)c2ccc3c(c2)OCO3)c1 |  | inactive: -1.85%
11 | CCN(CC)S(=O)(=O)c1cc(NC(=O)C2Cc3ccccc3C(=O)O2)ccc1C (stereo not drawn) | inconclusive [activator, single point] | 
12 | Cc1cccc(-n2nc3c(c2NC(=O)c2ccco2)CSC3)c1C |  | inactive: -6.94%
13 | COc1ccc(NC(=O)c2ccc(NCC3CCCO3)c([N+](=O)[O-])c2)cc1 (stereo not drawn) |  | inactive: -5.07%
14 | COC(=O)c1sccc1NC(=O)COc1ccc(Cl)cc1Cl | inconclusive [activator, single point] | 
15 | O=C1c2ccccc2C(=O)N1Cc1nc(-c2ccccc2)no1 |  | inactive: -1.47%
16 | N#Cc1cccc(NC(=O)CSc2nnc(-c3n[nH]c4ccccc34)o2)c1 | inconclusive [activator, partial curve] | 
17 | CC(=O)c1ccc(NC(=O)CSc2nnc(NC(=O)c3ccco3)s2)cc1 | inconclusive [activator, partial curve] | 
18 | CCOc1ccc(NC(=O)N2CCN(Cc3ccc4c(c3)OCO4)CC2)cc1 |  | inactive: 5.24%
19 | CN1CCN(C(=O)c2cc3ccccc3oc2=O)CC1 | inconclusive [activator, partial curve, poor fit] | 
20 | Oc1c(Cl)cc(Cl)cc1C=Nc1cc(C(F)(F)F)ccc1N1CCc2ccccc2C1 | inconclusive [activator, single point] | 
21 | CSc1nc(N)c2ncn([C@@H]3O[C@H](COP(=O)(O)OP(=O)(O)O)C(O)[C@H]3O)c2n1 (stereo partly drawn) |  | inactive: -3.93% [at 46.1 µM]
22 | O=C(COc1ccccc1)N1CCCC1 |  | inactive: -0.596%
23 | COc1ccc(N=Cc2[nH]c3ccccc3c2O)cc1 | inconclusive [activator, partial curve] | 
24 | O=[N+]([O-])c1ncccc1OCc1ccc(Cl)c(Cl)c1 | inconclusive [activator, partial curve] | 
25 | Cc1ccc(C(=O)NC2CCCCNC2=O)cc1C (stereo not drawn) | inconclusive [activator, partial curve] | 
26 | CCOC(=O)c1ccc(-c2ccc3c(=O)c4ccccc4n(C)c3c2)cc1F |  | inactive: 3.27%

Row | SMILES | Potency | activation, negative = inhibition
27 | O=C(/C=C/c1cnc2ccccc2n1)NC12CC3CC(CC(C3)C1)C2 | active: 3.16 µM | 
28 | O=C(CCc1nc2ccccc2c(=O)[nH]1)Nc1nc(-c2cccs2)cs1 | inconclusive [activator, single point] | 
29 | Cc1ccc(C(=O)Nc2cccc(-c3cn4ccccc4n3)c2)cc1 | inconclusive [activator, partial curve, poor fit] | 
30 | COc1ccc(CCNC(=O)c2cc(COc3c(F)cccc3F)on2)c(OC)c1 | inconclusive [activator, single point] | 
31 | CNC(=S)N/N=C/c1ccc2c(c1)OCCO2 |  | inactive: 25.1%
32 | CCS(=O)(=O)N1CCC(c2nc(-c3ccc(C)cc3)no2)CC1 | inconclusive [activator, partial curve] | 
33 | CCN(CC)S(=O)(=O)c1ccc2c(c1)nc(-c1ccccn1)n2C | inconclusive [activator, single point] | 
34 | O=[N+]([O-])c1cccnc1NCCNc1ncc(C(F)(F)F)cc1Cl | active: 2.24 µM | 
35 | CN(CC(=O)Nc1cccc(F)c1)C(=O)c1cc(S(=O)(=O)N(C)C)ccc1N1CCCC1 |  | inactive: -0.894%
36 | CN(CCNC(=O)CN1CCN(Cc2ccccc2Cl)C1=O)Cc1ccccc1 | inconclusive [activator, single point] | 
37 | COCCN(C(=O)COC(=O)c1nc(Cl)ccc1Cl)c1c(N)n(Cc2ccccc2)c(=O)[nH]c1=O |  | inactive: 1.1%
38 | COc1cccc(N=Nc2c(C)[nH]n(-c3ccccc3)c2=O)c1 | inconclusive [activator, partial curve, poor fit] | 
39 | COc1ccc(CN2CC(C(=O)NCCCN3CCCCCC3)CC2=O)cc1 (stereo not drawn) |  | inactive: 2.32%
40 | Cc1c(C(=O)NCc2ccoc2)oc2ccc3c(c12)C(=O)CC(C)(C)O3 | inconclusive [activator, partial curve] | 
41 | O=C(Nc1ccccc1C(F)(F)F)c1cc(-c2ccc(O)cc2)on1 | inconclusive [activator, single point] | 
42 | Cc1cc(C)n(CC(O)COc2ccc3ccccc3c2)n1 (stereo not drawn) | inconclusive [activator, single point] | 
43 | O=C(Nc1nc2c(s1)CCCC2)c1ccc(Br)o1 | active: 1.26 µM | 
44 | O=C1C[C@H](NC(=O)OCc2ccccc2)CO1 |  | inactive: 8.44%
45 | Cc1cc(C)n(-c2cc(O)c(-n3nc(C)cc3C)cc2O)n1 |  | inactive: -8.76%
46 | CCOC(=O)c1sc(NC(=O)c2cncc(Br)c2)nc1C |  | inactive: 17.2%
47 | COCc1nc(-c2ccc(-c3ccc(C)cc3)nc2OC)no1 | inconclusive [activator, single point] | 
48 | c1ccn2cc(-c3ccc4c(c3)OCO4)cc2c1 | active: 3.16 µM | 
49 | CSc1nsc2nc(=O)c(/C=C3\C(C)=Nc4ccccc43)c(N)n12 |  | inactive: 22.5%
50 | COc1ccc(C2CC(C(F)(F)F)n3nc(C(=O)O)cc3N2)cc1 (stereo not drawn) |  | inactive: 2.42%
51 | Cc1cc(C)n2nc(-c3cccnc3)nc2n1 |  | inactive: 1.87%
52 | COc1cc(/C=N/NS(=O)(=O)c2ccc3ccccc3c2)ccc1OCc1ccc(C(=O)O)cc1 | active: 2 µM | 

Row | SMILES | Potency | activation, negative = inhibition
53 | CCCCNc1nc(N)nc(-c2cc(Cl)ccc2O)n1 | active: 2.82 µM | 
54 | COc1ccc(NC(=O)Nc2ccccc2OC)cc1 | inconclusive [activator, partial curve] | 
55 | Cc1cccc(/C=N\NC(=O)c2ccc(Cl)cc2)c1O | inconclusive [activator, single point] | 
56 | COc1cccc(NC(=O)Nc2ccc3c(c2)CCC3)c1 | active: 1.58 µM | 
57 | CCOC(=O)C1CCCN(C(=S)Nc2ccc(Nc3ccccc3)cc2)C1 (stereo not drawn) | active: 1.41 µM | 
58 | CC(=O)Nc1nnc(SCc2ccccc2F)s1 | inconclusive [activator, partial curve, poor fit] | 
59 | CC1CCCCN1C(=O)CSc1nc2ccsc2c(=O)n1Cc1ccccn1 (stereo not drawn) | inconclusive [activator, partial curve] | 
60 | N/C(=N\OC(=O)c1ccc2ccccc2c1)c1ccc(Br)cc1 |  | inactive: 16.2%
61 | Cc1ccc2nc(SCC(=O)N3CCCC3)[nH]c2c1 | active: 1.41 µM | 
62 | COc1ccc(NC(=O)n2ncc3cc(Cl)ccc32)cc1OC | active: 3.55 µM | 
63 | CN(C)S(=O)(=O)N1CCc2ccc(NC(=O)c3ccccc3Cl)cc2C1 |  | inactive: 17.2%
64 | O=C(COc1ccccc1)Nc1nnc(C23CC4CC(CC(C4)C2)C3)s1 | inconclusive [activator, single point] | 
65 | Nc1c(-c2ccc3c(c2)OCCO3)oc2ccccc2c1=O | inconclusive [activator, single point] | 
66 | COC(=O)c1ccc(COC(=O)CNC(=O)c2ccc(-c3ccccc3)cc2)cc1 | inconclusive [activator, single point] | 
67 | Cc1ccc(C)n1-n1c(C)nc2sc(-c3ccccc3)cc2c1=O | inconclusive [activator, partial curve] | 
68 | Cc1cc(C(=O)COC(=O)c2ccc3c(c2)OCO3)c(C)n1CC1CCCO1 (stereo not drawn) | active: 1.26 µM | 
69 | O=C(c1ccco1)c1coc2c1cc(O)c1ccccc12 | inconclusive [activator, single point] | 
70 | COc1ccc(NC(=O)c2ccc(Cc3ccc(C)cc3)o2)cc1 |  | inactive: 7.83%
71 | CCOc1ccc(-c2cc(C(=O)N3CCN(c4ccccn4)CC3)c3ccccc3n2)cc1 | inconclusive [activator, full curve, poor fit] | 
72 | CCc1cc2c(=O)n(-c3ccc(Br)cc3)cnc2s1 | active: 2.51 µM | 
73 | COc1ccc(C(=O)CCc2ccccc2O)c(OC)c1 | inconclusive [activator, single point] | 
74 | COc1ccc(/C=N/NC(=O)c2ccc(NS(=O)(=O)c3cccs3)cc2)cc1 | inconclusive [activator, single point] | 
75 | O=C(CCSc1ccccc1)N1CCN(c2ccccc2F)CC1 | active: 3.55 µM | 
76 | O=C(/C=C/Nc1ccccc1)c1ccccc1 | active: 1 µM | 
77 | COc1ccc(/C=N/Nc2nncc3ccccc23)c(OC)c1 | inconclusive [activator, partial curve] | 
78 | CCN(CC)C(=O)c1nc[nH]c1C(=O)N(CC)CC |  | inactive: 3.62%
